Assay results reported in PubChem BioAssay AID686979 (National Center for Advancing Translational Sciences (NCATS), 2013).
Hit rate of the full screen: of about 420,000 compounds, about 50,000 (12%) were called active. The inconclusive results got no clear call from the source; some entries with a clear call stand among them for comparison. Calls follow the shape of the dose curve; as a rule, active = well fitted inhibition curve with a large enough effect; inconclusive = small, poorly fitted or top-dose-only effect; inactive = flat fitted curve, though single readings scatter. No potency is given beside an inconclusive call; the fits are too rough.

assay: qHTS for Inhibitors of human tyrosyl-DNA phosphodiesterase 1 (TDP1): qHTS in cells in presence of CPT; settings: chicken DT40 Tdp1-/-;hTDP1 cells + 20 nM CPT, ATP luminescence, 48 h; activity change, negative = growth inhibition: at 46.2 µM (top of the series); also: nearly all actives have a fitted effect of over 55% in size
How it was run: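 Chicken DT40 Tdp1-/- cells complemented with human TDP1, 400 cells/well, exposed to compounds plus 20 nM camptothecin for at least 48 h at 37 C; viability read as ATP content by CellTiter-Glo luminescence.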
% is scaled to controls: 0 for no effect and ±100 for the full control effect; potency is read from the fitted curve at half-maximal effect; tags tell the direction and shape of the fitted curve.

SMILES | Potency | activity change, negative = growth inhibition
CC1Cc2ccccc2N1C(=S)NC(=O)c1ccc(Cl)cc1Cl (centres undefined) | inconclusive [inhibitor, single point] | 
O=C(CN1CCN(C(c2ccccc2)c2ccccc2)CC1)Nc1ccc(N2CCOCC2)cc1 |  | inactive: -6.35%
CCOc1ccc(C(=O)N(c2ccccn2)C2CCCCC2)cc1 | inconclusive [inhibitor, full curve] | 
O=C(NCc1ccccc1)c1cccc2c(-c3cccnc3)coc12 | inconclusive [inhibitor, single point] | 
Cc1ccc(-c2nc3c(=O)n(C)c4ccccc4c3o2)cc1 | inconclusive [inhibitor, partial curve] | 
Cc1ccc(S(=O)(=O)N(C)C)cc1NC(=O)COC(=O)Cc1ccccc1F |  | inactive: -20.1%
Cc1ccc(-c2cc(C(=O)Nc3ccc(SC(F)F)cc3)no2)cc1F | inconclusive [inhibitor, single point] | 
Cc1ccc(OCC(=O)NNC(=O)C2CC(=O)N(c3ccc4c(c3)OCCO4)C2)cc1 (centres undefined) |  | inactive: 8.93%
Cc1cc(/C=N/NC(=O)c2ccccc2F)c(C)n1-c1ccccc1 |  | inactive: -18.3%
Cc1cccc(NC(=S)c2nc3ccccc3s2)c1 | inconclusive [inhibitor, partial curve] | 
CCOc1ccc2[nH]c(=O)c(CN(CCCN3CCOCC3)Cc3nnnn3Cc3ccc(OC)cc3)cc2c1 | inconclusive [inhibitor, single point] | 
CCCOc1ccc(NC(=O)CC2C(=O)N(c3ccccc3)C(=O)N2Cc2ccco2)cc1 (centres undefined) | inconclusive [inhibitor, single point] | 
CN1CCN(C(=O)CSc2nc3ccc(NC(=O)c4ccccc4F)cc3s2)CC1 | inconclusive [inhibitor, single point] | 
CCNS(=O)(=O)c1ccc(NC(=O)CSc2nc(-c3ccco3)cc(C(F)(F)F)n2)cc1 | active: 7.31 µM | 
COc1cccc(CNc2cnc3ccccc3c2)c1O | active: 11.6 µM | 
C=CCOC(=O)C1=C[C@@H](c2csc3ccccc23)C[C@@H](OCc2ccc(CO)cc2)O1 | inconclusive [inhibitor, single point] | 
CC(=O)N1CCN(CC(=O)Nc2cc(S(=O)(=O)N3CCOCC3)ccc2C)CC1 |  | inactive: 5.37%
O=C(/C=C/c1ccc(Cl)cc1)N(c1ccccn1)C1CCCCC1 | inconclusive [inhibitor, single point] | 
COc1cc2c(cc1OC)CN(C(=O)CSc1ccc(F)cc1)CC2 | inconclusive [inhibitor, single point] | 
Nn1cnc2scc(-c3ccco3)c2c1=O | inconclusive [inhibitor, single point] | 
Cc1cccc(C(O)c2ncc(-c3ccc(C(F)(F)F)cc3)[nH]2)c1C (centres undefined) | inconclusive [inhibitor, single point] | 
CCCCn1c(C2CCCCC2)nc2cc3[nH]c(=O)c(C(C)C)nc3cc21 | inconclusive [inhibitor, single point] | 
CC1(C)CC(=O)c2cc(OCC(=O)NCc3cccnc3)ccc2O1 |  | inactive: -10%

SMILES | Potency | activity change, negative = growth inhibition
C=C1CC2C(CCC3(C)C2CCC3(O)C(C)=O)C2(C)CCC(=O)C=C12 (centres undefined) | inconclusive [inhibitor, single point] | 
Cc1ccc(-c2nc3c(Cl)cc(C(F)(F)F)cn3c2Cc2ccccc2)cc1 | inconclusive [inhibitor, single point] | 
Oc1ccc(C=NNc2ccccn2)c(O)c1 | active: 4.11 µM | 
O=S(=O)(NCc1ccccc1)c1cccc2nsnc12 |  | inactive: -5.12%
O=C(O)CCCn1c(=O)c2cccn2c2ccc(F)cc21 | inconclusive [inhibitor, single point] | 
CC(C)[C@H](NC(=O)[C@@H]1Cc2ccccc2CN1C(=O)OC(C)(C)C)C(=O)NCC1CCC(C(=O)O)CC1 (some centres undefined) |  | inactive: -8.45%
O=C(c1ccncc1)c1ccc(NC(=O)c2cccs2)cc1 |  | inactive: 1.64%
CC(C)Cc1ccc(-c2ccc3nccn3c2)cc1 | inconclusive [inhibitor, single point] | 
CCCC(=O)NC1=C(Cl)C(=O)c2ccccc2C1=O | active: 0.651 µM | 
Cc1cccc(Nc2nnc(-c3ccc(C)c(S(=O)(=O)N4CCCCC4)c3)c3ccccc23)c1 | inconclusive [inhibitor, partial curve] | 
CN(C)S(=O)(=O)n1cc(/C=C(\NC(=O)c2ccccc2)C(=O)N2CCCCC2)c2ccccc21 | active: 23.1 µM | 
CC(C)OC(=O)c1cccc(NC(=O)Cn2nnc3sc4c(c3c2=O)CCCC4)c1 | inconclusive [inhibitor, single point] | 
COc1ccc(NC(=O)CN2C(=O)c3cccc4cccc2c34)c(OC)c1 | inconclusive [inhibitor, single point] | 
COc1cccc(Nc2ncc3nc(C)c(=O)n(C)c3n2)c1 | inconclusive [inhibitor, partial curve] | 
Cc1ccc(S(=O)(=O)N2CCN(C(=O)c3cc(-c4ccc(Br)cc4)n[nH]3)CC2)c(C)c1 | active: 16.4 µM | 
COc1cccc(-n2nc(-c3ccnn3-c3ccc(C)cc3)c(=O)n(C)c2=O)c1 | inconclusive [inhibitor, partial curve] | 
CCN(C(=O)c1cnc(NC(C)C)cc1C(F)(F)F)c1ccc(Cl)cc1 | inconclusive [inhibitor, partial curve, poor fit] | 
CN(c1ccc(OCc2ccc([N+](=O)[O-])cc2)cc1)S(=O)(=O)c1ccccc1 | inconclusive [inhibitor, single point] | 
CC1(c2ccc3ccccc3c2)NC(=O)N(CC(=O)N2CCN(Cc3ccc(C#N)cc3)CC2)C1=O (centres undefined) | active: 3.26 µM | 
COc1cc(C(CC(=O)Nc2ccc(C)cn2)N2Cc3ccccc3C2=O)cc(OC)c1OC (centres undefined) |  | inactive: 2.72%
CC(C)(C)C(=O)Oc1cccc(Nc2ncnc3ccccc23)c1 | inconclusive [inhibitor, single point] | 
Cc1nc(C(=O)Nc2ccc(Cl)cc2)sc1C1(C)CC(c2ccccc2)=NO1 (centres undefined) | inconclusive [inhibitor, partial curve] | 
Cc1nc(Cl)c2c(n1)N(CC(N)=O)C(=O)CO2 |  | inactive: -2.54%

SMILES | Potency | activity change, negative = growth inhibition
CC(C)N1CC(O)=C(c2nc3ccccc3[nH]2)C1=N | inconclusive [inhibitor, single point] | 
COc1ccc(-c2c(C(=O)c3ccccc3)[nH]c(N)c2C(N)=O)cc1OC | inconclusive [inhibitor, single point] | 
O=C(Nc1ccncc1)Nc1ccc(Br)cc1Cl | active: 20.6 µM | 
CC(=O)NCCNc1nc2cc(-c3ccc(C(=O)N4CCN(C)CC4)cc3)sc2c(=O)n1C |  | inactive: 8.86%
O=C(c1cc(-c2cccnc2)nc2ccccc12)N1CCN(S(=O)(=O)c2cccs2)CC1 | inconclusive [inhibitor, single point] | 
Nc1nc(Cl)nc2ccc(Br)cc12 | inconclusive [inhibitor, partial curve] | 
O=C(O)c1ccc(CNc2ncnc3nc[nH]c23)cc1 |  | inactive: 7.94%
CC1CCc2nc(NC(=O)Nc3ccc4c(c3)OCO4)sc2C1 (centres undefined) | inconclusive [inhibitor, single point] | 
CCOC(=O)C1(CCCc2ccccc2)CCN(S(C)(=O)=O)CC1 | inconclusive [inhibitor, single point] | 
Cc1cccc(C)c1N1C(=O)[C@@H]2C(c3ccccc3Cl)=NO[C@@H]2C1=O | inconclusive [inhibitor, single point] | 
Cc1ccc(S(=O)(=O)N(CC(=O)Nc2cccnc2)c2cccc([N+](=O)[O-])c2)cc1 | inconclusive [inhibitor, single point] | 
Cc1ccc(-c2nnc(Nc3ccc(C(N)=O)cc3)c3ccccc23)cc1S(=O)(=O)NCC1CCCO1 (centres undefined) | inconclusive [inhibitor, single point] | 
COc1ccc(S(=O)(=O)Nc2cccc3c2O[C@@H](CN(C)CC2CC2)[C@@H](C)CN([C@@H](C)CO)C3=O)cc1 |  | inactive: -4.8%
Cc1c(Cl)cccc1-n1ncc(C(=O)N2CCN(c3ncccn3)CC2)c1C1CCN(C(=O)OC(C)(C)C)CC1 | inconclusive [inhibitor, single point] | 
CC1(C)Cc2c(C#N)c(SCCO)nc(N3CCOCC3)c2CO1 |  | inactive: -21.6%
CCCCn1nnnc1C(C1CC1)N1CCN(C/C=C/c2ccccc2)CC1 (centres undefined) | inconclusive [inhibitor, single point] | 
Cc1cccc(C(=O)Nc2nnc(-c3cccnc3)o2)c1 | inconclusive [inhibitor, single point] | 
COc1cccc(Cn2nnc(C(=O)NCc3ccc(F)cc3)c2N)c1 | inconclusive [inhibitor, single point] | 
Cc1cc(C(=O)N2CCN(c3ccccc3Cl)CC2)c(C)o1 | active: 20.6 µM | 
Cc1ccc(NC(=O)C(Cc2ccccc2)NS(=O)(=O)c2ccc3c(c2)c(=O)n(C)c(=O)n3C)c(C)c1 (centres undefined) | inconclusive [inhibitor, single point] | 
O=C(OCc1ccc(Br)cc1)c1cccc(-c2nnc(-c3ccccc3)o2)c1 | inconclusive [inhibitor, single point] | 
O=C(CSc1ncn[nH]1)Nc1ccc(Cl)c(Cl)c1 |  | inactive: 1.29%
Cn1c2ccccc2c(=O)c2c(=O)n(Cc3ccccc3)c(-c3ccc(F)cc3)nc21 |  | inactive: -12.3%
